According to PMC9911399, “Two distinct binding modes provide the RNA-binding protein RbFox with extraordinary sequence specificity”:
Residue numbers refer to the chain shown, from its start. The list shows a part of the results.

T1: RBFOX1 RRM RbFoxmut (Fox-RRM*) (Homo sapiens, UniProt Q9NWB1 109-208, R118D;E147R;N151S;E152T)
T1 sequence: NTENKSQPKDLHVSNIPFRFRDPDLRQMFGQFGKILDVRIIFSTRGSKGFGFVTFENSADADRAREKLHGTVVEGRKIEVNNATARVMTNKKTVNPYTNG

B1: UCAGGUG (DNA:RNA)
RNA: GGGAGACCGGAAUUCAGAUUGUCCUCAGGUGUUAAAUCCCGUCGUAGCCACCA
DNA 1: CAATCTGAATTCCGGTCTCCC
DNA 2: TGGTGGCTACGACGGGATT
B2: ACAGAGU (DNA:RNA)
RNA: B1 RNA with U25A, G29A, U30G, G31U
DNA 1: CAATCTGAATTCCGGTCTCCC
DNA 2: TGGTGGCTACGACGGGATT
B3: AUGAAGA (DNA:RNA)
RNA: GGGAGACCGGAAUUCAGAUUGUCCAUGAAGAUUAAAUCCCGUCGUAGCCACCA
DNA 1: CAATCTGAATTCCGGTCTCCC
DNA 2: TGGTGGCTACGACGGGATT
B4: CGCCCAA (DNA:RNA)
RNA: B3 RNA with A25C, U26G, G27C, A28C, A29C, G30A
DNA 1: CAATCTGAATTCCGGTCTCCC
DNA 2: TGGTGGCTACGACGGGATT
B5: CAUGAGG (DNA:RNA)
RNA: B3 RNA with A25C, U26A, G27U, A28G, A31G
DNA 1: CAATCTGAATTCCGGTCTCCC
DNA 2: TGGTGGCTACGACGGGATT
B6: CAGACUC (DNA:RNA)
RNA: B3 RNA with A25C, U26A, A29C, G30U, A31C
DNA 1: CAATCTGAATTCCGGTCTCCC
DNA 2: TGGTGGCTACGACGGGATT
B7: ACCCCCG (DNA:RNA)
RNA: B1 RNA with U25A, A27C, G28C, G29C, U30C
DNA 1: CAATCTGAATTCCGGTCTCCC
DNA 2: TGGTGGCTACGACGGGATT
B8: GGCCCUA (DNA:RNA)
RNA: B3 RNA with A25G, U26G, G27C, A28C, A29C, G30U
DNA 1: CAATCTGAATTCCGGTCTCCC
DNA 2: TGGTGGCTACGACGGGATT
B9: GCAGAGA (DNA:RNA)
RNA: B3 RNA with A25G, U26C, G27A, A28G
DNA 1: CAATCTGAATTCCGGTCTCCC
DNA 2: TGGTGGCTACGACGGGATT
B10: CCGCGAU (DNA:RNA)
RNA: B1 RNA with U25C, A27G, G28C, U30A, G31U
DNA 1: CAATCTGAATTCCGGTCTCCC
DNA 2: TGGTGGCTACGACGGGATT
B11: UAGAGGU (DNA:RNA)
RNA: B3 RNA with A25U, U26A, A29G, A31U
DNA 1: CAATCTGAATTCCGGTCTCCC
DNA 2: TGGTGGCTACGACGGGATT
B12: GGUGCUG (DNA:RNA)
RNA: B1 RNA with U25G, C26G, A27U, G29C
DNA 1: CAATCTGAATTCCGGTCTCCC
DNA 2: TGGTGGCTACGACGGGATT
B13: GUCCUGU (DNA:RNA)
RNA: B3 RNA with A25G, G27C, A28C, A29U, A31U
DNA 1: CAATCTGAATTCCGGTCTCCC
DNA 2: TGGTGGCTACGACGGGATT
B14: CUGGACG (DNA:RNA)
RNA: B3 RNA with A25C, A28G, G30C, A31G
DNA 1: CAATCTGAATTCCGGTCTCCC
DNA 2: TGGTGGCTACGACGGGATT
B15: GUGCAAA (DNA:RNA)
RNA: B3 RNA with A25G, A28C, G30A
DNA 1: CAATCTGAATTCCGGTCTCCC
DNA 2: TGGTGGCTACGACGGGATT
B16: CUGUUAU (DNA:RNA)
RNA: B3 RNA with A25C, A28U, A29U, G30A, A31U
DNA 1: CAATCTGAATTCCGGTCTCCC
DNA 2: TGGTGGCTACGACGGGATT
B17: GAACCGA (DNA:RNA)
RNA: B3 RNA with A25G, U26A, G27A, A28C, A29C
DNA 1: CAATCTGAATTCCGGTCTCCC
DNA 2: TGGTGGCTACGACGGGATT
B18: GGUAUGG (DNA:RNA)
RNA: B3 RNA with A25G, U26G, G27U, A29U, A31G
DNA 1: CAATCTGAATTCCGGTCTCCC
DNA 2: TGGTGGCTACGACGGGATT
B19: GGUGUCG (DNA:RNA)
RNA: B1 RNA with U25G, C26G, A27U, G29U, U30C
DNA 1: CAATCTGAATTCCGGTCTCCC
DNA 2: TGGTGGCTACGACGGGATT
B20: UUUUCUA (DNA:RNA)
RNA: B3 RNA with A25U, G27U, A28U, A29C, G30U
DNA 1: CAATCTGAATTCCGGTCTCCC
DNA 2: TGGTGGCTACGACGGGATT
B21: AUGAAUC (DNA:RNA)
RNA: B3 RNA with G30U, A31C
DNA 1: CAATCTGAATTCCGGTCTCCC
DNA 2: TGGTGGCTACGACGGGATT
B22: CAACUCU (DNA:RNA)
RNA: B1 RNA with U25C, C26A, G28C, G29U, U30C, G31U
DNA 1: CAATCTGAATTCCGGTCTCCC
DNA 2: TGGTGGCTACGACGGGATT
B23: CGUAGCA (DNA:RNA)
RNA: B3 RNA with A25C, U26G, G27U, A29G, G30C
DNA 1: CAATCTGAATTCCGGTCTCCC
DNA 2: TGGTGGCTACGACGGGATT
B24: AGUGGGC (DNA:RNA)
RNA: B3 RNA with U26G, G27U, A28G, A29G, A31C
DNA 1: CAATCTGAATTCCGGTCTCCC
DNA 2: TGGTGGCTACGACGGGATT
B25: UUGCUAA (DNA:RNA)
RNA: B3 RNA with A25U, A28C, A29U, G30A
DNA 1: CAATCTGAATTCCGGTCTCCC
DNA 2: TGGTGGCTACGACGGGATT
B26: UGGAUAA (DNA:RNA)
RNA: B3 RNA with A25U, U26G, A29U, G30A
DNA 1: CAATCTGAATTCCGGTCTCCC
DNA 2: TGGTGGCTACGACGGGATT
B27: AUGGAGU (DNA:RNA)
RNA: B3 RNA with A28G, A31U
DNA 1: CAATCTGAATTCCGGTCTCCC
DNA 2: TGGTGGCTACGACGGGATT
B28: UAUCAUC (DNA:RNA)
RNA: B1 RNA with C26A, A27U, G28C, G29A, G31C
DNA 1: CAATCTGAATTCCGGTCTCCC
DNA 2: TGGTGGCTACGACGGGATT
B29: GAGUAUG (DNA:RNA)
RNA: B3 RNA with A25G, U26A, A28U, G30U, A31G
DNA 1: CAATCTGAATTCCGGTCTCCC
DNA 2: TGGTGGCTACGACGGGATT
B30: UUAUGGC (DNA:RNA)
RNA: B1 RNA with C26U, G28U, U30G, G31C
DNA 1: CAATCTGAATTCCGGTCTCCC
DNA 2: TGGTGGCTACGACGGGATT
B31: UUGAGGU (DNA:RNA)
RNA: B3 RNA with A25U, A29G, A31U
DNA 1: CAATCTGAATTCCGGTCTCCC
DNA 2: TGGTGGCTACGACGGGATT

The binders below were run against T1, RBFOX1 RRM RbFoxmut (Fox-RRM*) (assay: EMSA; HiTS-Eq, 1 nM pool, 10 min; buffer printed only for the single-RNA assays: 10 mM Tris pH 7.5, 150 mM NaCl, 3.4 mM EDTA, 0.001% NP-40, 30 C). Details: tags: His6 N-terminal (pET28a); label: 5' 32P.
Procedure, shortened: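 Relative association constants, normalised to the cognate motif, were derived by comparing read counts of each RNA species with those of the control reaction. The RNA sequenced was the free fraction, separated by 8% native PAGE after a 10 min equilibration in 50 µL of 1 nM 5′-radiolabelled RNA (7 randomized nucleotides) with increasing concentrations of purified wild-type or mutant RbFox RRM.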

Compared with B1, B2 is higher in binding signal: 0.122 KA relative to UGCAUGU for the first, 0.134 KA relative to UGCAUGU for the second.

First: B3
Second: B4
The binding signal of the first is higher: 0.122 KA relative to UGCAUGU for the first, 0.0759 KA relative to UGCAUGU for the second.

Compared with B5, B6 is lower in binding signal: 0.0773 KA relative to UGCAUGU for the first, 0.0667 KA relative to UGCAUGU for the second.

First: B7
Second: B8
The binding signal of the first is lower: 0.0612 KA relative to UGCAUGU for the first, 0.0849 KA relative to UGCAUGU for the second.

First: B9
Second: B10
The binding signal of the first is higher: 0.0792 KA relative to UGCAUGU for the first, 0.0678 KA relative to UGCAUGU for the second.

First: B11
Second: B12
The binding signal of the first is lower: 0.14 KA relative to UGCAUGU for the first, 0.163 KA relative to UGCAUGU for the second.

First: B13
Second: B14
The binding signal of the first is higher: 0.135 KA relative to UGCAUGU for the first, 0.0945 KA relative to UGCAUGU for the second.

First: B15
Second: B16
The binding signal of the first is lower: 0.0857 KA relative to UGCAUGU for the first, 0.123 KA relative to UGCAUGU for the second.

First: B17
Second: B18
The binding signal of the first is lower: 0.118 KA relative to UGCAUGU for the first, 0.419 KA relative to UGCAUGU for the second.

First: B19
Second: B20
The binding signal of the first is higher: 0.214 KA relative to UGCAUGU for the first, 0.109 KA relative to UGCAUGU for the second.

First: B21
Second: B22
The binding signal of the first is higher: 0.334 KA relative to UGCAUGU for the first, 0.0674 KA relative to UGCAUGU for the second.

Compared with B23, B24 is lower in binding signal: 0.161 KA relative to UGCAUGU for the first, 0.0896 KA relative to UGCAUGU for the second.

First: B25
Second: B26
The binding signal of the first is higher: 0.105 KA relative to UGCAUGU for the first, 0.103 KA relative to UGCAUGU for the second.

Compared with B27, B28 is lower in binding signal: 0.177 KA relative to UGCAUGU for the first, 0.0709 KA relative to UGCAUGU for the second.

Compared with B29, B30 is lower in binding signal: 0.795 KA relative to UGCAUGU for the first, 0.1 KA relative to UGCAUGU for the second.

In the case of B31, the binding signal is reported as 0.129 KA relative to UGCAUGU.
